Assays:
[1] = target: PD-1 (residues 1-199) C-terminally fused to the beta-galactosidase enzyme acceptor (EA) fragment, on U2OS … (human, UniProt Q15116 in part); test: cell-based or functional assay
[2] = target: LAG3 (residues 1-477) C-terminally fused to the beta-galactosidase ProLink (PK) fragment, on U2OS cells (human); test: cell-based or functional assay
[3] = target: T1, hPD1 (Acro Biosystems), SPR analyte (human, UniProt Q15116 in part); test: SPR (Biacore), antibody captured by anti-Fc, hPD1 as analyte, 25 C
T1 construct: also called human PD1 kinetics
Protocol: (§1) Anti-Fc polyclonal antibodies were immobilized onto a CMS chip (GE Life Sciences) using amine coupling chemistry (from Amine Coupling Kit, GE Life Sciences). The immobilization steps were carried out at a flow rate of 25 μl/min in 1×HBS-EP+buffer (GE Life Sciences; 10× Stock diluted before use). The sensor surfaces were activated for 7 min with a mixture of NHS (0.05 M) and EDC (0.2 M). The Anti-Fc antibodies were injected over all 4 flow cells at a concentration of 25 ug/ml in 10 mM sodium acetate, pH 4.5, for 7 min. Ethanolamine (1 M, pH 8.5) was injected for 7 min to block any remaining activated groups. An average of 12,000 response units (RU) of capture antibody was immobilized on each flow cell.
Kinetic binding experiments were performed at 25° C. using 1×HBS-EP+buffer. Test and control antibodies were injected over the anti-Fc surface at concentrations of 5-10 μg/mL for 12 seconds at a flow rate of 10 μl/min on flow cells 2, 3 and 4, followed by a buffer wash for 30 seconds at the same flow rate. Kinetic characterization of antibody samples was carried out with a dilution series of antigen and 1 injection of 0 nM antigen. […]
(§2) The data was fit with the Biacore T200 Evaluation software, using a 1:1 Langmuir binding model. KD (affinity, nM) was determined as a ratio of the kinetic rate constants calculated from the fits of the association and dissociation phases.

[4] = target: T2, hLAG3 (Acro Biosystems), SPR analyte (human, UniProt P18627 23-450); test: SPR (Biacore), antibody captured by anti-Fc, hLAG3 as analyte, 25 C
T2 construct: also called human LAG3 kinetics
T2 sequence: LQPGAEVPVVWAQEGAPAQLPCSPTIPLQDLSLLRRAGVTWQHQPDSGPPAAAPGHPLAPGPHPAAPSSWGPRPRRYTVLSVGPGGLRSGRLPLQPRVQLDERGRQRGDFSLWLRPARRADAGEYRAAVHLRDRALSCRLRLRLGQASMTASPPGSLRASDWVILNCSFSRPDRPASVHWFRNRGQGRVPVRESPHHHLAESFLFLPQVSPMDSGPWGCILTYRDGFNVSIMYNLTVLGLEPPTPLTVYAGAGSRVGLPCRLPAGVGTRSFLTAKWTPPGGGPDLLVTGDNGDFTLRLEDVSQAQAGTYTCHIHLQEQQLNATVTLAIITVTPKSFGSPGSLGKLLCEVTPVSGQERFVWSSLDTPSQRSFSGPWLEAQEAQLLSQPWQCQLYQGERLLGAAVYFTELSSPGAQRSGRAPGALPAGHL
Protocol: as §1
Kinetic binding experiments were performed at 25° C. using 1×HBS-EP+buffer. Test and control antibodies were injected over the anti-Fc surface at concentrations of 5-10 μg/mL for 12 seconds at a flow rate of 10 μl/min on flow cells 2, 3 and 4, followed by a buffer wash for 30 seconds at the same flow rate. Kinetic characterization of antibody samples was carried out with a dilution series of antigen and 1 injection of 0 nM antigen. After capturing ligand (antibody) on the anti-Fc surface, the analyte (hPD1 or hLAG3, Acro Biosystems, Newark, Del.) was bound at 100, 25, 6.25 and 0 nM for 180 seconds, followed by a 450 second dissociation phase at a flow rate of 50 μl/min. Between each ligand capture and analyte binding cycle, regeneration was carried out using 2 injections of 10 mM Glycine pH 2.0 for 30 seconds at 30 μL/min, followed by a 30 second buffer wash step.
as §2

[5] = target: T3, rabbit Fc-tagged recombinant human PD1 (rhPD1-rabbit Fc) (human, UniProt Q15116 in part, limits assumed); test: flow cytometry competition: inhibition of rhPD1-rabbit Fc binding to human PD-L1 on CHO cells; PE anti-rabbit IgG detection
T3 construct: also called recombinant human PD-1 protein
Protocol: (§3) CHO-k cells stably expressing human PD-L1 or PD-L2 were used to measure the ability of anti-PD1/LAG3 bi-specific antibody constructs to block rabbit Fc-tagged recombinant human PD1 (rhPD1-rabbit Fc) protein binding. Cells were seeded at 100,000 cells/well in 100 μL of FACS buffer in 96-well polypropylene plates. The cells were centrifuged and resuspended with test antibodies (2× concentration) diluted in FACS buffer, immediately followed by equal volume of rhPD1-rabbit Fc (added at 2× concentration; 0.2 ng/mL and 0.1 ng/mL final for PD-L1 and PD-L2, respectively). Cells were incubated on ice for 1 hour and washed twice. rhPD1-rabbit Fc binding on CHO-human PD-L1 or PD-L2 cells was detected with R-Phycoerythrin AffiniPure F(ab′)₂ Fragment Goat Anti-Rabbit IgG (H+L) (1:200 dilution, Jackson ImmunoResearch) for 30 minutes. The cells were washed twice with FACS buffer, fixed in 4% paraformaldehyde in PBS for 20 mins on ice in the dark, washed twice with FACS buffer, and analyzed using the BD LSR II Flow Cytometer. Data were analyzed using FlowJo (FlowJo, LLC; Ashland, Oreg.) to determine mean fluorescence intensities. Prism 6 software was used to create one site, specific binding with Hill slope curves (Log transform) to determine IC₅₀ values.

[6] = target: T3, rabbit Fc-tagged recombinant human PD1 …; test: flow cytometry competition: inhibition of rhPD1-rabbit Fc binding to human PD-L2 on CHO cells; PE anti-rabbit IgG detection
Protocol: as §3

PxL cell bridging EC50 (beta-galactosidase complementation, U2OS cells) [1]: 600 pM
PxL cell bridging EC50 (beta-galactosidase complementation, U2OS cells) [2]: 600 pM
Kd [3]: 1520 pM
koff [3]: 0.000849 s⁻¹
Kd [4]: 84.5 pM
koff [4]: 0.000102 s⁻¹
kon [4]: 1.21e+06 M⁻¹ s⁻¹
IC50 [5]: 2300 pM
IC50 [6]: 800 pM
B1: PD-1/LAG3 Bi-specific Construct A: aPD1 1353-G10 scFv_zwB × aLAG3 Fab_zwA (bispecific antibody, human IgG1, kappa)
scFv: MEVQLVQSGAEVKKPGASVKVSCKASGYRFPHYGISWVRQAPGQGLEWMGWISAYNGNTNYAQKLQGRVTMTTDTSTNTAYMELRSLRSDDTAVYYCARDVDYGTGSGYWGQGTLVTVSSGGGGSGGGGSGGGGSSYELTQPPSVSVSPGQTARITCSGDALPKQYAYWYQQKPGQAPVMVIYKDTERPSGIPERFSGSSSGTKVTLTISGVQAEDEADYYCQSADNSITYRVFGGGTKVTVLAAGSDQ[no letters for human IgG1 Fc with changes]
heavy: MQVQLVESGGGVVQPGRSLRLSCAASGFTFSSYGMHWVRQAPGKGLEWVAVIWYDGSYKYYADSVKGRFTISRDNSKNTLYLQMNSLRAEDTAVYYCAREEAPENWDYALDVWGQGTTVTVSSASTKGPSVFPLAPSSKSTSGGTAALGCLVKDYFPEPVTVSWNSGALTSGVHTFPAVLQSSGLYSLSSVVTVPSSSLGTQTYICNVNHKPSNTKVDKKVEPKSCDKTHTCPPCPAPELLGGPSVFLFPPKPKDTLMISRTPEVTCVVVDVSHEDPEVKFNWYVDGVEVHNAKTKPREEQYNSTYRVVSVLTVLHQDWLNGKEYKCKVSNKALPAPIEKTISKAKGQPREPQVYVYPPSREEMTKNQVSLTCLVKGFYPSDIAVEWESNGQPENNYKTTPPVLDSDGSFALVSKLTVDKSRWQQGNVFSCSVMHEALHNHYTQKSLSLSPGK
light: [no letters for about 100 residues][no letters for about 120 residues]
notes: also called 1449-G09.2-Fab-zwA
